Measured values taken from article PMC10009787 (ACS Medicinal Chemistry Letters, 2023).
Read-outs that look alike come from different tables or passages of the source.

Target: SRC (Homo sapiens, UniProt P12931)
Assay: SelectScreen kinase profiling / Z′-Lyte kinase assay

Sequence of UniProt P12931 (P12931 whole entry): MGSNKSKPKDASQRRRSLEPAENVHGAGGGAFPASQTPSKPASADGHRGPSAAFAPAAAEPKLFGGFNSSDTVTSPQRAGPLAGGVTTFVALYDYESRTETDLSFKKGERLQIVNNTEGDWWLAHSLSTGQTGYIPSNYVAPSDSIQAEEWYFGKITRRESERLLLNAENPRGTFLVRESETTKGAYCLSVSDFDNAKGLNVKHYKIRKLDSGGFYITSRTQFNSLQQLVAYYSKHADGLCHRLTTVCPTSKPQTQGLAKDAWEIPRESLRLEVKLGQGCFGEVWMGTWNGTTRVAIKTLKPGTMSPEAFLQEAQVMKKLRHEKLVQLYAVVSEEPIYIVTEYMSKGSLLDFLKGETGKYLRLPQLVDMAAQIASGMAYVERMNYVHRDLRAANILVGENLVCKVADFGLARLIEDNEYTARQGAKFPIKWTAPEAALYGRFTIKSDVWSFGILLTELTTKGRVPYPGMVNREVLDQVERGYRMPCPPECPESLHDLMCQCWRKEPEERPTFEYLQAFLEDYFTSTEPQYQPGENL

IC50: 33.5 nM
inhibition at 0.00457 µM (read-out: % Inhibition Point 1): 22%
inhibition at 0.0137 µM (read-out: % Inhibition Point 1): 41%
inhibition at 0.0412 µM (read-out: % Inhibition Point 1): 62%
inhibition at 0.123 µM (read-out: % Inhibition Point 1): 82%
inhibition at 0.37 µM (read-out: % Inhibition Point 1): 93%
inhibition at 1.11 µM (read-out: % Inhibition Point 1): 100%
inhibition at 0.0137 µM (read-out: % Inhibition Point 2): 35%
inhibition at 0.0412 µM (read-out: % Inhibition Point 2): 58%
inhibition at 0.123 µM (read-out: % Inhibition Point 2): 82%
inhibition at 0.37 µM (read-out: % Inhibition Point 2): 92%
inhibition at 1.11 µM (read-out: % Inhibition Point 2): 101%
Structure (SMILES): C=CC(=O)N1CCC[C@@H](n2nc(-c3ccc(Oc4ccccc4)cc3C)c3c(N)ncnc32)C1 [Compound 2, (R)-1-(3-(4-amino-3-(2-methyl-4-phenoxyphenyl)-1H-pyrazolo[3,4-d]pyrimidin-1-yl)piperidin-1-yl)prop-2-en-1-one]
